{
  "source": "PubChem BioAssay AID180",
  "about": "(DTP/NCI, 2004)",
  "system": "BDF1 mice, Adenocarcinoma 755 s.c., tumor weight T/C",
  "experiment": "NCI In Vivo Anticancer Drug Screen. Data for tumor model Adenocarcinoma 755 (subcutaneous) in B6D2F1 (BDF1) mice",
  "details": "endpoint: mean tumor weight, higher = larger tumour",
  "experimental": "The antitumor activity of compounds was measured in mice bearing transplantable tumors. Survival or tumor size were measured and the results are expressed as the measurement made in the treated group (T) divided by the measurement made in the vehicle treated control group (C). The tumor model used in this assay is Adenocarcinoma 755 (subcutaneous) in B6D2F1 (BDF1) mice",
  "key": {"[1]": {"details": "dose: 120.0 mg/kg/injection, schedule: Q01DX011 (ip), vehicle: carboxymethylcellulose (CMC)"}},
  "note": "Some entries of the source have several records that differ or are many. The list is limited to them. There may be further records. Values that stand side by side are repeats (runs, samples, wells, individuals or studies). Marks such as (2×) say how often a value occurs here.",
  "data": [
    {"smiles": "O=C1C=CC(=O)O1", "note": "(tested in a mixture with another compound)", "values": [
      {"measurement": "T/C", "setting": "dose: 45.0 mg/kg/injection, schedule: Q01DX011 (ip), vehicle: carboxymethylcellulose (CMC)", "value": "13 % of control and 58 % of control"}
    ]},
    {"smiles": "CN(N=O)C(N)=O", "values": [
      {"measurement": "T/C", "setting": "dose: 7.5 mg/kg/injection, schedule: Q01DX011 (ip), vehicle: carboxymethylcellulose (CMC)", "value": "77 % of control and 114 % of control"},
      {"measurement": "T/C", "setting": "dose: 11.25 mg/kg/injection, schedule: Q01DX011 (ip), vehicle: carboxymethylcellulose (CMC)", "value": "53 % of control, 153 % of control, 224 % of control"},
      {"measurement": "T/C", "setting": "dose: 12.65 mg/kg/injection, schedule: Q01DX011 (ip), vehicle: carboxymethylcellulose (CMC)", "value": "62 % of control, 81 % of control, 106 % of control"},
      {"measurement": "T/C", "setting": "dose: 16.86 mg/kg/injection, schedule: Q01DX011 (ip), vehicle: carboxymethylcellulose (CMC)", "value": "45 % of control and 83 % of control"},
      {"measurement": "T/C", "setting": "dose: 25.3 mg/kg/injection, schedule: Q01DX011 (ip), vehicle: carboxymethylcellulose (CMC)", "value": "23 % of control (2×) and 51 % of control"}
    ]},
    {"smiles": "CN1CCC(OC(N)=O)CC1", "values": [
      {"measurement": "T/C", "setting": "dose: 350.0 mg/kg/injection, schedule: Q01DX011 (ip), vehicle: carboxymethylcellulose (CMC)", "value": "28 % of control, 50 % of control, 65 % of control"}
    ]},
    {"smiles": "CC(=O)Nc1nc(Cl)c2ncn(C3CCCO3)c2n1", "note": "(configuration not stated)", "values": [
      {"measurement": "T/C", "setting": "[1]", "value": "48 % of control and 76 % of control"}
    ]},
    {"smiles": "CC(=O)OCC(=O)[C@@]1(O)CC[C@H]2[C@@H]3CCC4=CC(=O)C=C[C@]4(C)[C@H]3[C@@H](O)C[C@@]21C", "values": [
      {"measurement": "T/C", "setting": "dose: 10.0 mg/kg/injection, schedule: Q01DX011 (sc), vehicle: steriod suspending solution", "value": "34 % of control and 85 % of control"}
    ]},
    {"smiles": "CCn1cnc2c(=S)nc[nH]c21", "values": [
      {"measurement": "T/C", "setting": "dose: 1.5 mg/kg/injection, schedule: Q01DX011 (ip), vehicle: carboxymethylcellulose (CMC)", "value": "24 % of control and 66 % of control"}
    ]},
    {"smiles": "S=c1nc[nH]c2c1ncn2C1CCCO1", "note": "(configuration not stated)", "values": [
      {"measurement": "T/C", "setting": "dose: 3.0 mg/kg/injection, schedule: Q01DX011 (ip), vehicle: carboxymethylcellulose (CMC)", "value": "9 % of control and 44 % of control"}
    ]},
    {"smiles": "c1ccc2[nH]cnc2c1", "values": [
      {"measurement": "T/C", "setting": "dose: 154.0 mg/kg/injection, schedule: Q01DX011 (ip), vehicle: carboxymethylcellulose (CMC)", "value": "66 % of control, 83 % of control, 99 % of control"},
      {"measurement": "T/C", "setting": "dose: 308.0 mg/kg/injection, schedule: Q01DX011 (ip), vehicle: carboxymethylcellulose (CMC)", "value": "29 % of control and 88 % of control"}
    ]},
    {"smiles": "COc1ccc(C(=O)OCC2OC(n3cnc4c(=S)nc[nH]c43)C(OC(=O)c3ccc(OC)cc3)C2OC(=O)c2ccc(OC)cc2)cc1", "note": "(configuration not stated)", "values": [
      {"measurement": "T/C", "setting": "dose: 100.0 mg/kg/injection, schedule: Q01DX011 (ip), vehicle: carboxymethylcellulose (CMC)", "value": "40 % of control and 70 % of control"}
    ]},
    {"smiles": "O=S(=O)(Nc1ccccc1)c1ccc(C2CC3(Cl)C(Cl)=C(Cl)C2(Cl)C3(Cl)Cl)cc1", "note": "(configuration not stated)", "values": [
      {"measurement": "T/C", "setting": "dose: 56.25 mg/kg/injection, schedule: Q01DX011 (ip), vehicle: methylcellulose (MC)", "value": "82 % of control and 110 % of control"}
    ]},
    {"smiles": "O=C(O)CCC(=O)CCl", "values": [
      {"measurement": "T/C", "setting": "dose: 4.25 mg/kg/injection, schedule: Q01DX011 (ip), vehicle: methylcellulose (MC)", "value": "85 % of control and 119 % of control"},
      {"measurement": "T/C", "setting": "dose: 8.5 mg/kg/injection, schedule: Q01DX011 (ip), vehicle: methylcellulose (MC)", "value": "50 % of control and 93 % of control"},
      {"measurement": "T/C", "setting": "dose: 17.0 mg/kg/injection, schedule: Q01DX011 (ip), vehicle: methylcellulose (MC)", "value": "18 % of control and 67 % of control"}
    ]},
    {"smiles": "CCN(CC)CCOc1ccc(/C=N/Nc2nc3c(c(=O)n(C)c(=O)n3C)n2C)cc1", "values": [
      {"measurement": "T/C", "setting": "[1]", "value": "84 % of control and 121 % of control"}
    ]},
    {"smiles": "CNc1nc(N)nc(Nc2ccc(I)cc2)c1N=O", "values": [
      {"measurement": "T/C", "setting": "dose: 50.0 mg/kg/injection, schedule: Q01DX011 (ip), vehicle: carboxymethylcellulose (CMC)", "value": "27 % of control, 37 % of control, 111 % of control"},
      {"measurement": "T/C", "setting": "dose: 400.0 mg/kg/injection, schedule: Q01DX011 (ip), vehicle: carboxymethylcellulose (CMC)", "value": "19 % of control and 55 % of control"}
    ]},
    {"smiles": "CNC(C)=O", "values": [
      {"measurement": "T/C", "setting": "dose: 500.0 mg/kg/injection, schedule: Q01DX011 (ip), vehicle: carboxymethylcellulose (CMC)", "value": "84 % of control and 114 % of control"}
    ]},
    {"smiles": "O=C1CN(/N=C\\c2ccc([N+](=O)[O-])o2)C(=O)N1", "values": [
      {"measurement": "T/C", "setting": "dose: 32.1 mg/kg/injection, schedule: Q01DX011 (ip), vehicle: carboxymethylcellulose (CMC)", "value": "59 % of control and 103 % of control"}
    ]},
    {"smiles": "CC/C(=C(\\CC)c1ccc(OC)cc1)c1ccc(O)cc1", "values": [
      {"measurement": "T/C", "setting": "dose: 15.0 mg/kg/injection, schedule: Q01DX011 (sc), vehicle: other", "value": "28 % of control and 65 % of control"},
      {"measurement": "T/C", "setting": "dose: 30.0 mg/kg/injection, schedule: Q01DX011 (sc), vehicle: other", "value": "25 % of control and 65 % of control"},
      {"measurement": "T/C", "setting": "dose: 60.0 mg/kg/injection, schedule: Q01DX011 (sc), vehicle: other", "value": "26 % of control and 53 % of control"}
    ]},
    {"smiles": "Cc1ccc(CNc2ncnc3[nH]ncc23)cc1C", "values": [
      {"measurement": "T/C", "setting": "dose: 200.0 mg/kg/injection, schedule: Q01DX011 (ip), vehicle: methylcellulose (MC)", "value": "51 % of control and 79 % of control"}
    ]}
  ]
}
